Measurements from patent publication US20170224662A1 (priority 2016, published 2017).
The source gives many values for each of these; only a part stands here.

Experiment: 1- and 2-week accelerated stability of CPMM (~0.3 mg/mL) in aqueous pH buffer media, HPLC purity
Format: physicochemical
Method: The aqueous CPMM pH 1-9 samples described above were diluted as necessary to approximately 0.3 mg/mL and placed on accelerated stability at 25° C./60% relative humidity and 40° C./75% relative humidity conditions for two weeks. Samples were pulled at t=0, 1, and 2 weeks from set-up, and analyzed by HPLC. Samples were diluted to approximately 0.3 mg/mL, which well below the HPLC method nominal concentration, due to concerns of precipitation during the two week stability study. The injection volume was increased to compensate for the lower drug concentration in solution. The change in CPMM purity over the study duration is listed in Table 3 and plotted in FIGS. 3-5.
The pH 1 sample was placed on stability at a non-diluted concentration due to an error. This sample was re-diluted at the one-week time point to match the concentration in the pH 2-9 samples and re-placed on stability. The pH 9 sample results were not included in FIGS. 3-5 due to excessive degradation and for easier visual assessment over the more relevant pH 2-8 range.

Question: Which “Change in CPMM % Purity” value (pH 2 (Phosphoric Acid), 25° C./60% RH, t = 1 week) does the source give for `COC(=O)C1(OC(=O)c2cncn2[C@H](C)c2ccccc2)CC1` [CPMM, 1-(methoxycarbonyl)cyclopropyl-1-[(1R)-1-phenylethyl]-1H-imidazole-5-carboxylate] here?
Answer: −1.64%

Question: And the “Change in CPMM % Purity” value (pH 2 (Phosphoric Acid), 25° C./60% RH, t = 2 week)?
Answer: −3.25%

Question: What about the “Change in CPMM % Purity” value (pH 2 (Phosphoric Acid), 40° C./75% RH, t = 1 week) of the same molecule?
Answer: −6.03%

Question: What about the “Change in CPMM % Purity” value (pH 2 (Phosphoric Acid), 40° C./75% RH, t = 2 week) of the same molecule?
Answer: −12.13%

Question: And the “Change in CPMM % Purity” value (pH 3 (Phosphoric Acid), 25° C./60% RH, t = 1 week)?
Answer: −1.53%

Question: What about the “Change in CPMM % Purity” value (pH 3 (Phosphoric Acid), 25° C./60% RH, t = 2 week) of the same molecule?
Answer: −3.16%

Question: And the “Change in CPMM % Purity” value (pH 3 (Phosphoric Acid), 40° C./75% RH, t = 1 week)?
Answer: −5.36%

Question: And the “Change in CPMM % Purity” value (pH 3 (Phosphoric Acid), 40° C./75% RH, t = 2 week)?
Answer: −10.87%

Question: And the “Change in CPMM % Purity” value (pH 4 (Citric Acid), 25° C./60% RH, t = 1 week)?
Answer: −0.95%

Question: What about the “Change in CPMM % Purity” value (pH 4 (Citric Acid), 25° C./60% RH, t = 2 week) of the same molecule?
Answer: −2.00%

Question: What about the “Change in CPMM % Purity” value (pH 4 (Citric Acid), 40° C./75% RH, t = 1 week) of the same molecule?
Answer: −3.43%

Question: What about the “Change in CPMM % Purity” value (pH 4 (Citric Acid), 40° C./75% RH, t = 2 week) of the same molecule?
Answer: −6.99%

Question: What about the “Change in CPMM % Purity” value (pH 7 (Phosphoric Acid), 40° C./75% RH, t = 1 week) of the same molecule?
Answer: −2.90%

Question: What about the “Change in CPMM % Purity” value (pH 7 (Phosphoric Acid), 40° C./75% RH, t = 2 week) of the same molecule?
Answer: −5.62%

Question: What about the “Change in CPMM % Purity” value (pH 8 (Phosphoric Acid), 25° C./60% RH, t = 1 week) of the same molecule?
Answer: −1.76%

Question: What about the “Change in CPMM % Purity” value (pH 8 (Phosphoric Acid), 25° C./60% RH, t = 2 week) of the same molecule?
Answer: −3.62%

Question: And the “Change in CPMM % Purity” value (pH 8 (Phosphoric Acid), 40° C./75% RH, t = 1 week)?
Answer: −11.39%

Question: And the “Change in CPMM % Purity” value (pH 8 (Phosphoric Acid), 40° C./75% RH, t = 2 week)?
Answer: −22.20%

Question: What about the “Change in CPMM % Purity” value (pH 9 (Boric Acid), 25° C./60% RH, t = 1 week) of the same molecule?
Answer: −25.38%

Question: What about the “Change in CPMM % Purity” value (pH 9 (Boric Acid), 25° C./60% RH, t = 2 week) of the same molecule?
Answer: −44.67%

Question: And the “Change in CPMM % Purity” value (pH 9 (Boric Acid), 40° C./75% RH, t = 1 week)?
Answer: −78.47%

Question: What about the “Change in CPMM % Purity” value (pH 9 (Boric Acid), 40° C./75% RH, t = 2 week) of the same molecule?
Answer: −92.14%
